Reference: the supplement of paper PMC8728848
The other results are listed elsewhere or left out.

Legend:
Test in all cases: glycan array binding signal (z-score within array); higher = stronger binding
Details in all cases: glycan notation: IUPAC condensed, linker removed; mutation: N224Q
[1] = molecular target: GlcNAc(b1-4)GlcNAc(b1-4)GlcNAc(b1-4)GlcNAc(b1-4)GlcNAc
Outline: (§1)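 The Consortium for Functional Glycomics database supplied 3228 glycan arrays, of which those lacking an available protein sequence were dropped. The binding signal, a within-array Z-score, was averaged across arrays of the same protein sequence and across linkers. Negative scores can be read as non-binding.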

[2] = molecular target: GlcNAc(b1-4)GlcNAc(b1-4)GlcNAc(b1-4)GlcNAc(b1-4)GlcNAc(b1-4)GlcNAc
Outline: as §1

[3] = molecular target: GlcNAc(b1-4)[GlcNAc(b1-6)]GalNAc
Outline: as §1

[4] = molecular target: GlcNAc(b1-6)Gal(b1-4)GlcNAc
Outline: as §1

[5] = molecular target: GlcNAc(b1-6)GalNAc
Outline: as §1

[6] = molecular target: GlcNAc6S(b1-3)Gal(b1-4)GlcNAc
Outline: as §1

[7] = molecular target: Kdn(a2-3)Gal(b1-3)GalNAc
Outline: as §1

[8] = molecular target: Kdn(a2-3)Gal(b1-3)GlcNAc
Outline: as §1

[9] = molecular target: Kdn(a2-3)Gal(b1-4)Glc
Outline: as §1

[10] = molecular target: Kdn(a2-3)Gal(b1-4)GlcNAc
Outline: as §1

[11] = molecular target: Kdn(a2-3)Gal(b1-4)[Fuc(a1-3)]GlcNAc
Outline: as §1

[12] = molecular target: Kdn(a2-6)Gal(b1-4)GlcNAc
Outline: as §1

[13] = molecular target: Man(a1-2)Man(a1-2)Man(a1-3)Man
Outline: as §1

[14] = molecular target: Man(a1-2)Man(a1-2)Man(a1-6)[Man(a1-3)]Man
Outline: as §1

[15] = molecular target: Man(a1-2)Man(a1-3)Man
Outline: as §1

[16] = molecular target: Man(a1-2)Man(a1-3)[Man(a1-2)Man(a1-6)]Man
Outline: as §1

[17] = molecular target: Man(a1-2)Man(a1-3)[Man(a1-2)Man(a1-6)]Man(a1-6)[Man(a1-2)Man(a1-2)Man(a1-3)]Man
Outline: as §1

[18] = molecular target: Man(a1-2)Man(a1-3)[Man(a1-2)Man(a1-6)]Man(a1-6)[Man(a1-2)Man(a1-2)Man(a1-3)]Man(b1-4)GlcNAc(b1-4)GlcNAc
Outline: as §1

[19] = molecular target: Man(a1-2)Man(a1-3)[Man(a1-6)]Man(a1-6)[Man(a1-2)Man(a1-3)]Man(b1-4)GlcNAc(b1-4)GlcNAc
Outline: as §1

[20] = molecular target: Man(a1-2)Man(a1-6)[Man(a1-3)]Man(a1-6)[Man(a1-2)Man(a1-2)Man(a1-3)]Man
Outline: as §1

[21] = molecular target: Man(a1-2)Man(a1-6)[Man(a1-3)]Man(a1-6)[Man(a1-2)Man(a1-2)Man(a1-3)]Man(b1-4)GlcNAc(b1-4)GlcNAc
Outline: as §1

[22] = molecular target: Man(a1-3)[Man(a1-6)]Man
Outline: as §1

[23] = molecular target: Man(a1-3)[Man(a1-6)]Man(a1-6)[Man(a1-2)Man(a1-3)]Man(b1-4)GlcNAc(b1-4)GlcNAc
Outline: as §1

[24] = molecular target: Man(a1-3)[Man(a1-6)]Man(a1-6)[Man(a1-3)]Man
Outline: as §1

[25] = molecular target: Man(a1-3)[Man(a1-6)]Man(a1-6)[Man(a1-3)]Man(b1-4)GlcNAc(b1-4)GlcNAc
Outline: as §1

[26] = molecular target: Man(a1-3)[Man(a1-6)]Man(b1-4)GlcNAc(b1-4)GlcNAc
Outline: as §1

[27] = molecular target: Man(a1-3)[Man(a1-6)]Man(b1-4)GlcNAc(b1-4)[Fuc(a1-6)]GlcNAc
Outline: as §1

[28] = molecular target: Man(a1-6)Man
Outline: as §1

[29] = molecular target: Man(b1-4)GlcNAc
Outline: as §1

[30] = molecular target: MurNAc(b1-4)GlcNAc
Outline: as §1

[31] = molecular target: Neu5Ac(a2-3)Gal
Outline: as §1

[32] = molecular target: Neu5Ac(a2-3)Gal(b1-3)GalNAc
Outline: as §1

[33] = molecular target: Neu5Ac(a2-3)Gal(b1-3)GalNAc(b1-3)Gal(a1-4)Gal(b1-4)Glc
Outline: as §1

[34] = molecular target: Neu5Ac(a2-3)Gal(b1-3)GalNAc(b1-4)Gal(b1-4)Glc
Outline: as §1

[35] = molecular target: Neu5Ac(a2-3)Gal(b1-3)GalNAc(b1-4)[Neu5Ac(a2-3)]Gal(b1-4)Glc
Outline: as §1

[36] = molecular target: Neu5Ac(a2-3)Gal(b1-3)GalNAc(b1-4)[Neu5Ac(a2-8)Neu5Ac(a2-3)]Gal(b1-4)Glc
Outline: as §1

[37] = molecular target: Neu5Ac(a2-3)Gal(b1-3)GalNAc6S
Outline: as §1

[38] = molecular target: Neu5Ac(a2-3)Gal(b1-3)GlcNAc
Outline: as §1

[39] = molecular target: Neu5Ac(a2-3)Gal(b1-3)GlcNAc(b1-2)Man
Outline: as §1

[40] = molecular target: Neu5Ac(a2-3)Gal(b1-3)GlcNAc(b1-2)Man(a1-3)[GlcNAc(b1-4)][Neu5Ac(a2-3)Gal(b1-3)GlcNAc(b1-2)Man(a1-6)]Man(b1-4)GlcNAc(b1-4)GlcNAc
Outline: as §1

[41] = molecular target: Neu5Ac(a2-3)Gal(b1-3)GlcNAc(b1-2)Man(a1-3)[Neu5Ac(a2-3)Gal(b1-3)GlcNAc(b1-2)Man(a1-6)]Man(b1-4)GlcNAc(b1-4)GlcNAc
Outline: as §1

[42] = molecular target: Neu5Ac(a2-3)Gal(b1-3)GlcNAc(b1-2)[Neu5Ac(a2-3)Gal(b1-3)GlcNAc(b1-4)]Man(a1-6)[Neu5Ac(a2-3)Gal(b1-3)GlcNAc(b1-2)Man(a1-3)]Man(b1-4)GlcNAc(b1-4)GlcNAc
Outline: as §1

[43] = molecular target: Neu5Ac(a2-3)Gal(b1-3)GlcNAc(b1-3)Gal(b1-3)GlcNAc
Outline: as §1

[44] = molecular target: Neu5Ac(a2-3)Gal(b1-3)GlcNAc(b1-3)Gal(b1-4)GlcNAc
Outline: as §1

[45] = molecular target: Neu5Ac(a2-3)Gal(b1-3)GlcNAc(b1-3)GalNAc
Outline: as §1

B1: AAL (Aleuria aurantia) (protein)
chain: MPTEFLYTSKIAAISWAATGGRQQRVYFQDLNGKIREAQRGGDNPWTGGSSQNVIGEAKLFSPLAAVTWKSAQGIQIRVYCVNKDNILSEFVYDGSKWITGQLGSVGVKVGSNSKLAALQWGGSESAPPNIRVYYQKSNGSGSSIHEYVWSGKWTAGASFGSTVPGTGIGATAIGPGRLRIYYQATDNKIREHCWDSNSWYVGGFSASASAGVSIAAISWGSTPQIRVYWQKGREELYEAAYGGSWNTPGQIKDASRPTPSLPDTFIAANSSGNIDISVFFQASGVSLQQWQWISGKGWSIGAVVPTGTPAGW
glycan array binding signal (z-score) [1]: -0.314
glycan array binding signal (z-score) [2]: -0.321
glycan array binding signal (z-score) [3]: -0.323
glycan array binding signal (z-score) [4]: -0.311
glycan array binding signal (z-score) [5]: -0.325
glycan array binding signal (z-score) [6]: -0.313
glycan array binding signal (z-score) [7]: -0.294
glycan array binding signal (z-score) [8]: -0.318
glycan array binding signal (z-score) [9]: -0.309
glycan array binding signal (z-score) [10]: -0.32
glycan array binding signal (z-score) [11]: -0.301
glycan array binding signal (z-score) [12]: -0.312
glycan array binding signal (z-score) [13]: -0.317
glycan array binding signal (z-score) [14]: -0.312
glycan array binding signal (z-score) [15]: -0.318
glycan array binding signal (z-score) [16]: -0.315
glycan array binding signal (z-score) [17]: -0.312
glycan array binding signal (z-score) [18]: -0.312
glycan array binding signal (z-score) [19]: -0.309
glycan array binding signal (z-score) [20]: -0.315
glycan array binding signal (z-score) [21]: -0.318
glycan array binding signal (z-score) [22]: -0.312
glycan array binding signal (z-score) [23]: -0.3
glycan array binding signal (z-score) [24]: -0.283
glycan array binding signal (z-score) [25]: -0.312
glycan array binding signal (z-score) [26]: -0.311
glycan array binding signal (z-score) [27]: 1.03
glycan array binding signal (z-score) [28]: -0.316
glycan array binding signal (z-score) [29]: -0.313
glycan array binding signal (z-score) [30]: -0.327
glycan array binding signal (z-score) [31]: -0.327
glycan array binding signal (z-score) [32]: -0.306
glycan array binding signal (z-score) [33]: -0.313
glycan array binding signal (z-score) [34]: -0.304
glycan array binding signal (z-score) [35]: -0.312
glycan array binding signal (z-score) [36]: -0.315
glycan array binding signal (z-score) [37]: -0.325
glycan array binding signal (z-score) [38]: -0.324
glycan array binding signal (z-score) [39]: -0.311
glycan array binding signal (z-score) [40]: -0.296
glycan array binding signal (z-score) [41]: -0.292
glycan array binding signal (z-score) [42]: -0.281
glycan array binding signal (z-score) [43]: -0.326
glycan array binding signal (z-score) [44]: -0.321
glycan array binding signal (z-score) [45]: -0.324
